# Measurements from ChEMBL document CHEMBL4888484, “Replenishing the malaria drug discovery pipeline: Screening and hit evaluation of the MMV Hit Generation Library 1 (HGL1) against asexual blood stage Plasmodium falciparum ,using a nano luciferase reporter read-out” (2022).
# About 540 (0.36%) of roughly 150,000 compounds showed an effect of 50% or more. The list shows a part of the results.
# Tested on: Plasmodium falciparum
# Experiment: Primary screen in NF54 nanoGlo assay, in single point, at 2uM, 72h; a lower Z score goes with more inhibition
# Assay type: functional, Erythrocyte
# Conditions: timepoint 72 hour
SMILES,% Inhibition,Z score
Cc1cc(CN2CCC[C@H]2c2nc3ccccc3s2)oc1C(=O)O,-6%,0.89
CCO[C@@H](C)C(=O)NCc1c(C)n[nH]c1C,-13%,1.66
COc1ccc(S(=O)(=O)N2CCOCC2)cc1NC(=O)C1CCCCC1,-7%,1.08
O=C1CN(C(=O)COC(=O)Cc2ccc(Cl)cc2)c2ccccc2N1,10%,-1.32
O=C(Nc1ncccc1O)c1ccsc1,-19%,3.36
O=C(C1CCN(c2cnc3nccnc3c2)CC1)N1CCCC1,1%,-0.22
Cc1cc(C)cc(NCC(=O)NCC(F)(F)F)c1,1%,-0.14
CCCS(=O)(=O)N1CC[C@@]2(CCCN(CC3CCCCC3)C2=O)C1,3%,-0.41
CCOC1CC(N(C)C(=O)c2cn[nH]c2)C1(CC)CC (stereo not drawn),-2%,0.33
O=C(c1ccc(CO)o1)N1C[C@H]2CC[C@@H](C1)N(Cc1cscn1)C2=O,3%,-0.39
O=C(Nc1ccc(F)c(Cl)c1)N(Cc1ccncc1)C1CC1,-11%,1.35
O=C(NCC1CCCCC1)c1ccc2c(c1)nc1n2CCN(C2CCCCC2)C1=O,-3%,0.35
COc1ccc(N[C@@H](C)c2nc(-c3ccco3)no2)cc1,-3%,0.47
CC(C)[C@H](NS(=O)(=O)c1ccc2ccccc2c1)C(=O)N1CCCCC1,-4%,0.5
CCC[C@H](C)NC(=O)c1c(F)cccc1F,-11%,1.29
CN(C(=O)CC1CCCC1)C1CN(c2ccc3nnc(C(C)(C)C)n3n2)C1,-13%,1.85
O=C(COC[C@H]1CCCCO1)N1CCN(C(=O)c2ccco2)CC1,0%,-0.03
CC(=O)c1cnc(N[C@@H](C)[C@H](O)c2ccc(O)cc2)nc1C,-7%,1.09
CCS(=O)(=O)N1C[C@@H]2CN(C(=O)c3ccc(OC)nc3)C[C@]2(c2nc(C)no2)C1,-7%,0.93
CN(Cc1ccncc1)Cc1ccnn1C,-4%,0.41
COCCNS(=O)(=O)c1ccc(OC)c(-c2nc(C(C)C)no2)c1,-6%,1.25
CCCn1nccc1NC(=O)NCc1cn2ccc(C)nc2n1,0%,-0.05
O=C(Cc1cnccn1)N[C@H]1CC(=O)N(c2ccc(F)cc2)C1,8%,-1.31
O=C(CNC(=O)OCc1ccccc1)NC[C@H](O)c1ccccc1,5%,-0.65
CC(=O)N1C(C)CN(S(=O)(=O)c2ccc(C)cc2)C1c1ccc(N(C)C)cc1 (stereo not drawn),33%,-3.7
Cc1c(S(=O)(=O)N2CC3CN(c4ccccc4)CC3C2)cnn1C (stereo not drawn),37%,-0.93
COc1ccc(C2CC(c3ccc(C)cc3)n3ncnc3N2C(=O)c2ccccc2)cc1 (stereo not drawn),32%,-3.62

SMILES,% Inhibition,Z score
Cc1c(CCNC(=O)N(C)Cc2ccc(Cl)c(F)c2)cnn1C,3%,-0.36
Cc1cccc(N2N=C([C@H]3CCOC3)CC2=O)c1Cl,-7%,0.95
O=C(NCc1cn2cccnc2n1)[C@H]1CCCN(Cc2ccco2)C1,-12%,2.4
COCC(C)C(=O)N1CCC(N2C(=O)O[C@H]3CN(c4nc(C)nc5c4cnn5C)C[C@H]32)C1 (stereo partly drawn),-5%,0.97
COc1ccc(-c2ccc(N3CCCC3)nn2)cn1,-11%,1.6
CC1NC(=O)C(C)N(C(=O)NCc2ccccc2)C1C (stereo not drawn),-5%,1.07
CC(C)Oc1ccc(-c2noc(Cc3nnc(-c4ccc(F)cc4)o3)n2)cc1,-8%,0.99
CC(C)c1cncc(NC(=O)[C@H](C)c2ccncc2)c1,-5%,0.89
O=C(NC(Cc1ccncc1)[C@H]1C[C@H](O)C1)c1cnco1 (stereo partly drawn),-18%,2.73
Cc1sc(CN2CCOCC2)nc1-c1cc(F)ccc1F,1%,-0.14
Cc1ccc(C(=O)Nc2cc(C(=O)N3CCCCC3C)cc(C(=O)N3CCCCC3C)c2)cc1 (stereo not drawn),6%,-0.87
C[C@H]1CCCN(c2ccn3c(=O)n(CC(=O)NCc4ccccc4)nc3n2)C1,0%,0.05
C[C@]1(O)C[C@@H](NS(=O)(=O)c2cc(Cl)sc2Cl)C1,1%,-0.06
Cc1ncn(-c2ccc(C(=O)OCc3ccccc3)cn2)n1,-7%,0.82
CC[C@H](C)N(C)CCNC(=O)NCc1cc(C(F)(F)F)on1,-7%,0.87
Cn1nncc1CNc1ncc(Br)cc1CO,-1%,0.15
CN1C(=O)[C@@H](c2ccccc2)CC12CCN(C(=O)c1ccc(C#N)cc1)CC2,-12%,1.13
Cc1ccc2oc(C(=O)N3CC[C@H](O)CC34CCC4)cc2n1,4%,-0.57
CCc1csc(N2CC(c3n[nH]c(C)n3)C2)n1,-3%,0.61
COc1c(C(=O)N2CCN(c3cccc(C)n3)C[C@@H]2C)c(C)nn1C,13%,-1.26
O=C(Nc1ccccc1Cc1ccccc1)N1CCN(C(=O)c2ccccc2)CC1,-8%,1.1
COc1cccc(N2CCN(C(=O)c3cc(-c4ccccc4)c(N4CCCCC4)s3)CC2)c1,-8%,0.95
COCc1nc([C@@H]2CCCCCN2C)n(Cc2ccc(OC)cc2)n1,-9%,1.66
COC[C@@H]1CCC[C@@H]1Nc1nc(-c2ccccn2)nc2c1CCNC2,-4%,0.61
Cc1ccc(CNC(=O)[C@@H]2C[C@H](n3cnnn3)CN2Cc2ccc(OCc3ccccc3)cc2)cc1,-9%,1.27
CC(=O)Nc1nsc(N2CCC(C(=O)N3CCN(c4ccccc4Cl)CC3)CC2)n1,-20%,3.22
Cn1cc(S(=O)(=O)NCc2cn(-c3ccsc3)nn2)cn1,7%,-1.02
